From paper PMC12136788
Some of the results follow.

T1: UNK ZnF1-6 (called full-length) (human, UniProt Q9C0B0 30-357)
T1 sequence: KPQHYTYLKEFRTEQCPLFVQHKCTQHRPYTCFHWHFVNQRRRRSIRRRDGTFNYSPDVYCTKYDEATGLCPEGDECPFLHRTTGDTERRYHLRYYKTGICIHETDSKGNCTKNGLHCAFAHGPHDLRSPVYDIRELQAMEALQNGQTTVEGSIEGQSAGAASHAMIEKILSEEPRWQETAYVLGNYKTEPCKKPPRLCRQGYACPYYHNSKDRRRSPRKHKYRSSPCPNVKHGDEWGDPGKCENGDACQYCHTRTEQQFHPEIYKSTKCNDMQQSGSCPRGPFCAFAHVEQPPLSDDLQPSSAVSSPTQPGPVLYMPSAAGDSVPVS

B1: chr12:111449306:111449407:+|3pUTR|ENSG00000111252|msi1|total|mutant (ssRNA)
RNA: GGGAGUUCUACAGUCCGACGAUCGCUGGCUUGGUGCCCUCCAAGCAUCUAAUGGCUUAUUAAAUUAUCCCACAAGUGGGUUUCCGGCUCCUUUUUUGAGCCAAAAUGGAAGCUGGGAAUCUGGUGCCAUAACUAAUGAGAAACCAACAGAGGAUUGAGCAUCA
B2: ENSG00000136451:be:win_4001|3pUTR|ENSG00000136451|bound_else_gene|NA|bound_elsewhere_windowed (ssRNA)
RNA: GGGAGUUCUACAGUCCGACGAUCGUCAUGUCUUCUUUUGGGAGGGAGAGAGUCGAUGGCAGGAGGGGGUUUUGGGUGGGCCACUGAAAAGGGGUACCGAAUAGGUUGUGUGAUGAAAUUCUGUGUCUUGGAACUGGAAUUGAGCAACAGAGGAUUGAGCAUCA
B3: chrX:71240429:71240530:-|3pUTR|ENSG00000147130|msi1|FALSE|unique (ssRNA)
RNA: GGGAGUUCUACAGUCCGACGAUCGGCUUUGGGUUUCCUGACCCAUCCCGCAUAGGUAGAGCCUCUUGUUCCUAGGCAUGACCUAGGGAAAAACCCAGCUGCCUUCUCUGCCCUGUGCCCACUCCCUUCUCUACUCUUCCCCAGCAACAGAGGAUUGAGCAUCA
B4: chr10:78022286:78022401:-|CDS|ENSG00000148606|unk|total|mutant (ssRNA)
RNA: GGGAGUUCUACAGUCCGACGAUCAACACCGUAUCUCCAUUUCUGCCUUUCUUCGUUUCCACCGGAAAACUUGAAUCCCUCCGCCGUUCUGAAUUUAUUUAAACGAAUCCCAGCUGAAGAUGUUCCUCUACUUCUGAUGAACCCCAACAGAGGAUUGAGCAUCA
B5: chr12:20680103:20680206:+|CDS|ENSG00000172572|unk|FALSE|unique (ssRNA)
RNA: GGGAGUUCUACAGUCCGACGAUCCUUACAGAACCACAAGAUGUGGAAGAAAGUCAUUGAAGAGGAGCAACGGUUGGCAGGCAUAGAAAAUCAAUCCCUGGACCAGACCCCUCAGUCGCACUCUUCAGAACAGAUCCAGGCUAUCAACAGAGGAUUGAGCAUCA
B6: chr19:17405403:17405546:-|CDS|ENSG00000130303|unk|total|mutant (ssRNA)
RNA: GGGAGUUCUACAGUCCGACGAUCUGACUAUUGCAGAGUGCCCAUGGAAGACGGGGAUAAGCGCUGUAAGCUUCUGCUGGGGACCGGAAUUCUGGUGCUCCUGAUCAUCGUGAUUCUGGGGGUGCCCUUGAUUAUCUUCACCAUCAACAGAGGAUUGAGCAUCA
B7: chr7:41967724:41967825:-|CDS|ENSG00000106571|msi1|total|mutant (ssRNA)
RNA: GGGAGUUCUACAGUCCGACGAUCCCCCAUCAGCAACUAUUCCAACAGUGGGCUCGAGCUUCCUCUGACCGAUGGAGGCCGUACCGGAGACCUCAGUGCCAUCGAUGAAACCCCAAUCAUGGACUCAACCAUUUCCACUGCAACCAACAGAGGAUUGAGCAUCA
B8: chr4:127885990:127886091:+|CDS|ENSG00000142731|msi1|FALSE|unique (ssRNA)
RNA: GGGAGUUCUACAGUCCGACGAUCAUUACUUAUCGGGAGACCACCCUUCGACACUGACACAGUCAAGAACACAUUAAAUAAAGUAGUAUUGGCAGAUUAUGAAAUGCCAUCUUUUUUGUCAAUAGAGGCCAAGGACCUUAUUCACAACAGAGGAUUGAGCAUCA
B9: chr8:97276997:97277102:-|CDS|ENSG00000180543|unk|total|mutant (ssRNA)
RNA: GGGAGUUCUACAGUCCGACGAUCAUCCCGGGCUUCUGGGGGCAAGCAUUUCAGAACCAUCCCCAGCCCGCAUCCUUUCUGAACCGCCAAGAGAAAGAGGUACUGAGCUACUUAAACAGCUUGGAAGUGGAAGAGCUCGGCCUUCAACAGAGGAUUGAGCAUCA
B10: chr10:123166816:123166917:+|3pUTR|ENSG00000154473|unk|FALSE|unique (ssRNA)
RNA: GGGAGUUCUACAGUCCGACGAUCAAAAACUUAAAGGUAUAUUAGCAGGUUAGCCUUUGUUCUGUGGGAGAUCCAGGCCUUGUUAGAAGGACCAAGGCCAGAAUGCCCAGUUUAGCCUUAGCAUUCAAACCCUUCAUUGUUUUUCAACAGAGGAUUGAGCAUCA
B11: chr5:147393764:147393895:-|3pUTR|ENSG00000113657|msi1_unk|FALSE|overlapping (ssRNA)
RNA: GGGAGUUCUACAGUCCGACGAUCUCCAAUGUUACGCUCGCUUGCCUAGCUUUACGAAUAUUGCUUUGUUUUCUGUUUAUGCAUAGCCUUGAUUUGUUUGACUCCCCUCCCCCCAUUUACAUGCAUGCAAUCAGACAGGCCACUCAACAGAGGAUUGAGCAUCA
B12: chr7:36452941:36453042:+|3pUTR|ENSG00000011426|msi1|FALSE|unique (ssRNA)
RNA: GGGAGUUCUACAGUCCGACGAUCGUCUUGAAGCAGCAACGUCUUUCAGGGGUUGGAGACAGAAACCCAUUCUCCAAUCUCAGUAGUUUUUUCGAAAGGCUGUGAUCAUUUAUUGAUCGUGAUAUGACUUGUUACUAGGGUACUCAACAGAGGAUUGAGCAUCA
B13: chr19:42297191:42297292:-|CDS|ENSG00000079462|unk|FALSE|unique (ssRNA)
RNA: GGGAGUUCUACAGUCCGACGAUCCCGACAGGUGAACGAGCUGGUACGGGCGGCACUGGCUGGCCACCCUCGGGCCCACUUCCUAGAUGCCGACCCUGGCUUUGUGCACUCAGAUGGCACCAUCAGCCAUCAUGACAUGUAUGACAACAGAGGAUUGAGCAUCA
B14: chr10:80519475:80519574:+|3pUTR|ENSG00000108219|msi1_unk|total|mutant (ssRNA)
RNA: GGGAGUUCUACAGUCCGACGAUCAGUGUGGUGUAUACUGGUGGCUGUUGAUGAUGAUUUUUUUUUUUUUACACAAUUCUCUGCCGACCCGGAGAAGAAUGCUUGUGUUUUUCGGAAGUGUGAUGCUUCUCUUUGACUGCCAAACAACAGAGGAUUGAGCAUCA
B15: ENSG00000006715:stop:overlap|stop_codon|ENSG00000006715|stop_codon|NA|stop_codon (ssRNA)
RNA: GGGAGUUCUACAGUCCGACGAUCGCAACAUCUGCAGUGCUAAGAACCGUGGACCAGGAAGUGCAAUUUUGGAGAUGAAAAAAUAGCUCAUUUCUCCUUGUCAGUCUCCUUGUCACCACUCUUUUUGAGACUGUUUUUGCAACACAACAGAGGAUUGAGCAUCA
B16: chr8:76983344:76983445:-|CDS|ENSG00000164751|msi1|total|mutant (ssRNA)
RNA: GGGAGUUCUACAGUCCGACGAUCAGCCACCAGUGGCAAAGAAUGCGCUCUAUGUGGAGAGUGGCCCACCAUGCCUCACACCACCGGAUGUGAGCAUAUUUUCUGUUAUUUCUGUGCUAAGAGCCGUUUCUUAUUUGACGUGUACAACAGAGGAUUGAGCAUCA
B17: ENSG00000143815:stop:overlap|stop_codon|ENSG00000143815|stop_codon|NA|stop_codon (ssRNA)
RNA: GGGAGUUCUACAGUCCGACGAUCGAUUGAUUGGAUGGGAACCUCGACAGGACUCCACAAUACAUUUAGUUGUUAUUCCUUCUUAGUCUUCUCUAGUCUAAUAGUUGUUUAGGCUUUCCUUGUCUCUCAUGACCUUGAUACUUUCAACAGAGGAUUGAGCAUCA
B18: chr6:11183581:11183682:-|3pUTR|ENSG00000111859|msi1|FALSE|unique (ssRNA)
RNA: GGGAGUUCUACAGUCCGACGAUCAAAACAAGAAUGCAUGAUCUCAGAGUGAUUAAAAAAAAAUCAGUGGAAAUAAAUGAUCAUAGAAGGUGCUUUUCAAAACAACUGCUAUUAUAAUUCUCAAAGUCCUACUCUGCCAAAAGACAACAGAGGAUUGAGCAUCA
B19: ENSG00000165476:stop:overlap|stop_codon|ENSG00000165476|stop_codon|NA|stop_codon (ssRNA)
RNA: GGGAGUUCUACAGUCCGACGAUCAAGAGGUGCGGUACGGGUCACUAAAAUACAAAGUGAAGAAACGACCACAAGUGUAUUUUUAGUCAUCUACACGUCAAAUAUCCCAAGACAGAUUAUGCUAAAUACAUCGACUUCAUCUUCCAACAGAGGAUUGAGCAUCA
B20: chr3:183812448:183812549:+|3pUTR|ENSG00000163872|msi1|total|mutant (ssRNA)
RNA: GGGAGUUCUACAGUCCGACGAUCUAUUGCAGGUAUCACAGCCUAAAGAAAUUAUCUUUUUGCAAAAGAAAUAUUAAAUGAUUCCGCAGUCUCCACGUGUGUUAAUGUUUCAAACGUGUAUCAUAAUGUGUAUAAUUGUGUAACCAACAGAGGAUUGAGCAUCA
B21: chr21:36896991:36897096:-|CDS|ENSG00000159267|unk|total|mutant (ssRNA)
RNA: GGGAGUUCUACAGUCCGACGAUCCAGUGGCUUGGGAAACAUGUGGACUCCGAGGGAGAAAUAAAAUCCGGCCAGCUCUCUCUCCGAUUUGUUUCAUCCUACGUGUCUGAAGCCGAAAUAACCCCAUCUUGUAUACCUGUGGUGCAACAGAGGAUUGAGCAUCA
B22: chr4:8867047:8867692:-|three_prime_utr|ENSG00000215612|control|control|control (ssRNA)
RNA: GGGAGUUCUACAGUCCGACGAUCGACCCUGUGGACCUGUGUGGACGCGCGAUUCAGCGGCAGGCGCAGGGCUCAGGGGGCGUUAGGGAAGGGAUGGUCGCUCCUGCGGCCUCCUAGAUACCUCGGGAGCGCAGGCCGCGGCCGCAACAGAGGAUUGAGCAUCA

What follows are binders tested against T1, UNK ZnF1-6 (called full-length) (assay: nsRBNS (natural sequence RNA bind-n-seq); RBNS binding buffer (assumed for nsRBNS): 25 mM Tris pH 7.5, 150 mM KCl, 3 mM MgCl2, 0.01% Triton X-100, 500 ug/ml BSA, 20 U/ml SUPERase-In, 4 C; UNK is unkempt and MSI1 is Musashi-1; names of the RNAs are library labels; protein concentration not given here; high values mean tight binding).

Compared with B1, B2 is higher in binding signal: 0.551 enrichment R for the first, 1.21 enrichment R for the second.

Compared with B3, B4 is lower in binding signal: 0.88 enrichment R for the first, 0.399 enrichment R for the second.

Going from B5 to B6, the binding signal rises from 0.691 enrichment R to 0.908 enrichment R.

Going from B7 to B8, the binding signal rises from 0.64 enrichment R to 1.26 enrichment R.

Going from B9 to B10, the binding signal rises from 0.553 enrichment R to 0.847 enrichment R.

Going from B11 to B12, the binding signal rises from 0.696 enrichment R to 0.713 enrichment R.

Compared with B13, B14 is lower in binding signal: 0.764 enrichment R for the first, 0.482 enrichment R for the second.

Going from B15 to B16, the binding signal falls from 0.735 enrichment R to 0.468 enrichment R.

Going from B17 to B18, the binding signal falls from 0.522 enrichment R to 0.386 enrichment R.

Going from B19 to B20, the binding signal falls from 0.648 enrichment R to 0.41 enrichment R.

Compared with B21, B22 is higher in binding signal: 0.663 enrichment R for the first, 0.682 enrichment R for the second.
